The whole screen tested about 310,000 compounds, of which about 2,200 (0.71%) showed an effect of 50% or more. The effect is printed as a negative number. The list shows a part of the results.

Chain of human ether-à-go-go-related gene (hERG) potassium channel (Q12809 whole entry, looked up): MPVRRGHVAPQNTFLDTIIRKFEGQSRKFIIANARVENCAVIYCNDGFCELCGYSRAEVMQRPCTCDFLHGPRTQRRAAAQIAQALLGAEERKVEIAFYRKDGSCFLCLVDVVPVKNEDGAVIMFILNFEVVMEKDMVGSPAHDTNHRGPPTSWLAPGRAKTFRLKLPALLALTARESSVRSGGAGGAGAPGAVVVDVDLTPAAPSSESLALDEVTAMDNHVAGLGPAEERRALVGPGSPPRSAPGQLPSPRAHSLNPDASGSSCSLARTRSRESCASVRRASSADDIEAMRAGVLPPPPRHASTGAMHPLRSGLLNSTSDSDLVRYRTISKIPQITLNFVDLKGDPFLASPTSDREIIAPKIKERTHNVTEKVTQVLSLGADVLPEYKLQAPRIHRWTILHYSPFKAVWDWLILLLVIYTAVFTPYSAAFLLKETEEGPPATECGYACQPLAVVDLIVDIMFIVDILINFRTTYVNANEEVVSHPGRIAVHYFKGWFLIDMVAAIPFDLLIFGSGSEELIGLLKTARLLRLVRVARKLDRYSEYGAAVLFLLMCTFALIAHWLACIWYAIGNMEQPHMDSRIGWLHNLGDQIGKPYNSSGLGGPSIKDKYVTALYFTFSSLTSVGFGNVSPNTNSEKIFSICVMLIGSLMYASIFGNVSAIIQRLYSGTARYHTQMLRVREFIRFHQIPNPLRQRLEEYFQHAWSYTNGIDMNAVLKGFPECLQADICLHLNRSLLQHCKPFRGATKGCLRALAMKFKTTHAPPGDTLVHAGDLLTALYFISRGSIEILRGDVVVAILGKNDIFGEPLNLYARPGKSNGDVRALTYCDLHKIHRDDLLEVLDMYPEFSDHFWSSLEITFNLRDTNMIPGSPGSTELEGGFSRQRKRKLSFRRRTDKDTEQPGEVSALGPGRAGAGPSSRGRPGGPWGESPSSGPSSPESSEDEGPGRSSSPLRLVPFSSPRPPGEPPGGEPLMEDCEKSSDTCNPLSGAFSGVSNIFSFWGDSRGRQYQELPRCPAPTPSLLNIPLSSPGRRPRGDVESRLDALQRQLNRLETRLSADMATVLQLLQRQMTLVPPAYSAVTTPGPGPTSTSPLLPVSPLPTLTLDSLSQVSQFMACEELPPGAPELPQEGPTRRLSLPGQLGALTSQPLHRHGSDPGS

The assay has as its target human ether-à-go-go-related gene (hERG) potassium channel (human, UniProt Q12809). The assay is described as follows: primary screen, population patch clamp on CHO cells stably expressing hERG.
As for `Nc1c(C(=O)NC2CCCC2)c2nc3ccccc3nc2n1/N=C/c1ccco1`, the “hERG current change (%, negative = inhibition) at 1uM” value is given as -5.95%.
Regarding `CCOC(=O)c1ccc(NS(=O)(=O)c2c(N)n(C)c(=O)n(C)c2=O)cc1`, the “hERG current change (%, negative = inhibition) at 1uM” value is listed as 9.67%.
Under `CC1CCCN(C(=O)c2cc(F)c(F)cc2Cl)C1` (stereo not shown) stands -17%.
Take `CC(/C=N\N1CCN(c2ccc(Cl)cc2)CC1)=C\c1ccccc1`: the “hERG current change (%, negative = inhibition) at 1uM” value worked out at 1.61%.
Consider `Cc1oncc1C(=O)NC1CCCCC1`, for which the “hERG current change (%, negative = inhibition) at 1uM” value stood at 18.3%.
On to `CCOc1ccc2nc(NC(=O)CCn3cccc3)sc2c1`, for which the “hERG current change (%, negative = inhibition) at 1uM” value turned out to be 0.632%.
For `COC(=O)c1cc(OC)c(OC)cc1NCC(=O)Nc1cccc(C(F)(F)F)c1`, the “hERG current change (%, negative = inhibition) at 1uM” value was 16%.
As for `CN(C)S(=O)(=O)N(CC(=O)N1CCN(c2ccccc2)CC1)c1ccccc1`, the “hERG current change (%, negative = inhibition) at 1uM” value is -1.69%.
As to `O=C(CCc1ccccc1)Nc1nc2n(n1)C(c1ccccc1)CC(=O)N2` (stereo not shown), the “hERG current change (%, negative = inhibition) at 1uM” value amounted to 13%.
The result for `Cc1cccc(C(=O)c2cccc(C)c2)c1` reads 9.57%; that for `CC(=O)Nc1ccc(NC(=O)C(c2ccccc2)c2ccccc2)cc1`, 15.7%; that for `O=C1COc2ccc(S(=O)(=O)N3CCN(c4ccccc4)CC3)cc2N1`, 12.4%.
For the compound `COc1ccc(C(CNC(=O)c2oc3ccc(OC)cc3c2C)N2CCCC2)cc1` (stereo not shown), the “hERG current change (%, negative = inhibition) at 1uM” value is -30.8%.
In the case of `O=C(CSCc1nc2c(nnn2Cc2ccc(F)cc2)c(=O)[nH]1)Nc1cccc(C(F)(F)F)c1`, the “hERG current change (%, negative = inhibition) at 1uM” value amounted to 12.7%.
On to `CCOc1cc(N2CCOCC2)c(OCC)cc1NC(C)C(=O)N1CCC(C)CC1` (stereo not shown), for which the “hERG current change (%, negative = inhibition) at 1uM” value is 11.4%.
For `O=C(CSc1ccccc1)N1CCC(N2CCC(C(=O)N3CCCC3)CC2)CC1`, the “hERG current change (%, negative = inhibition) at 1uM” value is given as -4.77%.
As for `COc1ccc(C(=O)N/N=C(\C)CC(=O)N2CCN(C=O)CC2)cc1`, the “hERG current change (%, negative = inhibition) at 1uM” value was determined as 21.4%.
In the case of `O=S(=O)(c1ccc(-c2ccccc2)cc1)N1CCOCC1`, the “hERG current change (%, negative = inhibition) at 1uM” value is reported as 9.41%.
Regarding `COc1ccc2sc(N(CCN(C)C)C(=O)c3cc(Cl)sc3Cl)nc2c1.Cl`, the “hERG current change (%, negative = inhibition) at 1uM” value is 7.91%.
Regarding `CC(=O)Nc1cc(C(=O)N2CCc3ccccc3C2)ccc1Sc1ccc(Cl)cc1`, the “hERG current change (%, negative = inhibition) at 1uM” value worked out at 9.31%.
Regarding `Cc1cc(C)nc(SCc2ccc(Cl)cc2)n1`, the “hERG current change (%, negative = inhibition) at 1uM” value was found to be 15.1%.
For the compound `O=C(Nc1ccccc1Cl)N1CCN(Cc2ccc3c(c2)OCO3)CC1`, the “hERG current change (%, negative = inhibition) at 1uM” value came to 17%.
`Cc1ccc(S(=O)(=O)Nc2cc(C(=O)O)ccc2N2CCCCC2)cc1`: the “hERG current change (%, negative = inhibition) at 1uM” value stood at 8.52%.
As for `Cc1cccc(-n2c(=O)[nH]c3c(C(N)=O)nc(CC(C)C)nc32)c1`, the “hERG current change (%, negative = inhibition) at 1uM” value turned out to be 11.6%.
The result for `Nc1nonc1-n1nnc(C(=O)N/N=C/c2c(Cl)cccc2Cl)c1CSC1=NCCS1` reads 15.2%; that for `C/C(CC(=O)Nc1ccc2c(c1)OCCO2)=N\NC(=O)COc1cccc(C)c1`, 9.91%; that for `Cc1nc(N2CCN(c3ccccn3)CC2)c2c(C)c(C(=O)Nc3c(C)cc(Br)cc3C)sc2n1`, 16.8%.
Take `O=C(NC(=S)NC1C2CC3CC(C2)CC1C3)C12CC3CC(CC(C3)C1)C2` (stereo not shown): the “hERG current change (%, negative = inhibition) at 1uM” value worked out at 4.43%.
On to `CC(C)CNC(=S)NNC(=O)c1csc2ccccc12`, for which the “hERG current change (%, negative = inhibition) at 1uM” value came out at 9.77%.
As to `Cc1nn(C(=O)c2cccc([N+](=O)[O-])c2)c(C)c1Sc1ccccc1`, the “hERG current change (%, negative = inhibition) at 1uM” value was determined as 11.4%.
Consider `O=S(=O)(c1ccccc1)N1CCN(c2ncnc3scc(-c4ccccc4)c23)CC1`, for which the “hERG current change (%, negative = inhibition) at 1uM” value turned out to be 18.5%.
The result for `COc1ccc(-c2cn(-c3ccccc3)nc2CO)cc1` reads 7.87%; that for `CCCCCOc1ccc(C(=O)CCC(=O)N2CCCC2)cc1`, 9.37%.
The result for `CN(C)CCNC(=O)c1ccc(COc2ccc(Cl)cc2Cl)cc1` reads -1.41%.
Regarding `COc1ccc(C(=O)NC2CC3CCCC(C2)N3Cc2ccccc2)cc1` (stereo not shown), the “hERG current change (%, negative = inhibition) at 1uM” value is reported as -15.7%.
Under `COC(=O)c1ccc(COc2c(F)c(F)cc(F)c2F)o1` stands 7.83%; under `CC(=O)Oc1ccc(N2C(=O)C3C4C=CC(CO)(O4)C3C2=O)cc1` (stereo not shown), 12.7%.
In the case of `O=C(NCc1ccccn1)C(=O)Nc1nc(C23CC4CC(CC(C4)C2)C3)cs1`, the “hERG current change (%, negative = inhibition) at 1uM” value is given as 6.89%.
With `CCn1cc(Br)c(C(=O)Nc2sc3c(c2C(N)=O)CCCC3)n1`, the “hERG current change (%, negative = inhibition) at 1uM” value is on record as -6.66%.
For the compound `CCOC(=O)N1CCN(CC(O)COc2ccccc2[N+](=O)[O-])CC1.Cl` (stereo not shown), the “hERG current change (%, negative = inhibition) at 1uM” value was 11.7%.
Under `COCCn1c(=NC(=O)c2ccccc2[N+](=O)[O-])sc2cc(S(C)(=O)=O)ccc21` stands 9.08%; under `COc1cc(=O)n(C)c2ccccc12`, 8.88%; under `Cc1cc(N2CCCCC2)nc(-c2ccc(Br)cc2)n1`, 5.1%.
As for `Cc1ccc(C(=O)c2coc3c2C(=O)C(=O)c2ccccc2-3)cc1`, the “hERG current change (%, negative = inhibition) at 1uM” value is on record as 10%.
In the case of `O=C(Nc1cc([N+](=O)[O-])ccc1O)c1cccc(NC(=O)c2ccco2)c1`, the “hERG current change (%, negative = inhibition) at 1uM” value came out at 17.2%.
Under `CC(C)(C)N1CC(C(=O)Nc2ccc(C#N)cc2)CC1=O` (stereo not shown) stands 8.42%; under `Cc1ccc(NC(=O)CN2CCN(C(=O)c3ccco3)CC2)cc1`, -1.3%.
As for `O=C(NCc1ccccn1)Nc1cc(Cl)ccc1Cl`, the “hERG current change (%, negative = inhibition) at 1uM” value is on record as -8.51%.
As to `O=C(CCn1cccn1)N1CCCC(N2CCN(c3cccc(C(F)(F)F)c3)CC2)C1` (stereo not shown), the “hERG current change (%, negative = inhibition) at 1uM” value was -1.1%.
With `Cn1c(CCNC(=O)C(C)(C)C)nc2ccccc21`, the “hERG current change (%, negative = inhibition) at 1uM” value is recorded as 13.8%.
The result for `COc1ccccc1NC(=S)NC(=O)c1ccc(-c2ccc(Cl)cc2)o1` reads 2.74%; that for `O=C(COC(=O)Cc1ccccc1)NC12CC3CC(CC(C3)C1)C2`, 9.33%; that for `COc1ccccc1CNC(=O)c1nnc(Cc2ccc(Cl)cc2)o1`, 13.8%.
For the compound `C/C=C(\C)C(=O)Nc1cccc(C2=NOC3(C2)C[C@@H](C(N)=O)N(C(=O)c2ccccc2C(=O)c2ccccc2)C3)c1` (stereo partly shown), the “hERG current change (%, negative = inhibition) at 1uM” value was 10.8%.
As to `Cn1nc([N+](=O)[O-])nc1Sc1nnnn1-c1ccc(C(=O)O)cc1`, the “hERG current change (%, negative = inhibition) at 1uM” value came out at 8.97%.
The result for `Cn1c(=O)cc(SCC(=O)NCCCN2CCN(c3ccccc3F)CC2)c2ccccc21` reads -6.98%; that for `O=C(Nc1cccc(Cl)c1)Nc1csc([N+](=O)[O-])c1`, 13.6%; that for `O=C(CCC1CCCCC1)Nc1ncn[nH]1`, 5.8%.
On to `CCCSc1nnc(NC(=O)c2nc(SC)ncc2Cl)s1`, for which the “hERG current change (%, negative = inhibition) at 1uM” value was -6.11%.
As to `C[C@@H](NC(=O)[C@@H]1Cc2ccccc2CN1)C(=O)NC1CCCCC1`, the “hERG current change (%, negative = inhibition) at 1uM” value amounted to 12.5%.
Regarding `C=CCn1c(N)c(C(=O)OCCC)c2nc3ccccc3nc21`, the “hERG current change (%, negative = inhibition) at 1uM” value is -18%.
Take `CCOC(=O)C1=C(C)NC(=S)NC1c1ccco1` (stereo not shown): the “hERG current change (%, negative = inhibition) at 1uM” value came to 13.7%.
For `O=C(NC1CCCCC1)c1ccc(CNc2ccccc2)o1`, the “hERG current change (%, negative = inhibition) at 1uM” value is reported as 8.74%.
Under `CCOC(=O)c1c(C)[nH]c(C)c1S(=O)(=O)N1CCCCC1` stands 17.5%; under `O=C(CN1C(=O)S/C(=C\c2ccc(F)cc2)C1=O)NCCCn1ccnc1`, -6.45%; under `CC(C)(C)c1ccc(/C=C/C(=O)c2ccc(NC3=NCCCS3)cc2)cc1`, -4.53%.
As to `O=C(CNC(=O)c1ccccc1)OCc1nnc(-c2ccccc2)o1`, the “hERG current change (%, negative = inhibition) at 1uM” value is reported as 17.4%.
Consider `O=C1CCN(Cc2ccccc2)CCN1[C@H](CSc1ccccc1)Cc1ccccc1`, for which the “hERG current change (%, negative = inhibition) at 1uM” value is reported as -39.1%.
In the case of `CCOC(=O)N1CCN(C(=O)COCc2cc(-c3ccc4c(c3)OCO4)on2)CC1`, the “hERG current change (%, negative = inhibition) at 1uM” value is -0.101%.
Consider `O=C(Cn1cc(S(=O)(=O)Cc2cccc([N+](=O)[O-])c2)c2ccccc21)N1CCOCC1`, for which the “hERG current change (%, negative = inhibition) at 1uM” value is 12.2%.
On to `Cc1ccccc1NC(=O)/C(C#N)=C\c1ccsc1`, for which the “hERG current change (%, negative = inhibition) at 1uM” value was 8.01%.
On to `CCN(CCCNC(=O)CCn1c(=O)[nH]c2ccccc2c1=O)c1cccc(C)c1`, for which the “hERG current change (%, negative = inhibition) at 1uM” value is listed as 5.59%.
The result for `Cc1ccc2[nH]c(CCN(C)C)c(CC#N)c2c1` reads -23.7%.
On to `CCCCNC(=O)c1ccc(NC(=O)CC2SC(N3CCCC3)=NC2=O)cc1` (stereo not shown), for which the “hERG current change (%, negative = inhibition) at 1uM” value came to 18.3%.
Consider `Cc1noc(NS(=O)(=O)c2ccc(NC(=O)CSc3n[nH]c(-c4ccccc4)n3)cc2)c1C`, for which the “hERG current change (%, negative = inhibition) at 1uM” value was found to be 12.6%.
The result for `COc1ccc(CCNC(=O)C2CCN(S(=O)(=O)c3cccc4cccnc34)CC2)cc1OC` reads 22.1%; that for `Nc1nnc(N2CCc3ccccc32)s1`, 12.8%.
As to `CC1CCc2nc(N)c(C#N)c(-c3cccnc3)c2C1` (stereo not shown), the “hERG current change (%, negative = inhibition) at 1uM” value is given as -2.94%.
Consider `O=C(COC(=O)/C=C/c1cccs1)NC(=O)Cc1ccccc1`, for which the “hERG current change (%, negative = inhibition) at 1uM” value stood at 7.91%.
For `COc1ccc(NC(=O)c2cc3cc(C)ccc3n2C)c(OC)c1`, the “hERG current change (%, negative = inhibition) at 1uM” value is given as 10.7%.
In the case of `COc1ccc(N(CC(=O)NC2CCCC2)C(=O)CCC(=O)Nc2cc(C)on2)cc1`, the “hERG current change (%, negative = inhibition) at 1uM” value is recorded as 10%.
With `Cc1cccc(NC(=O)c2sc3nc4c(c(-c5ccco5)c3c2N)CCC4)c1`, the “hERG current change (%, negative = inhibition) at 1uM” value turned out to be 5.23%.
`Cc1ccc(-c2cc(C(=O)NCCc3ccccn3)c3ccccc3n2)c(C)c1`: the “hERG current change (%, negative = inhibition) at 1uM” value is -13.8%.
As to `CCCCn1c(NS(=O)(=O)c2ccccc2)c(C(=O)OCC)c2nc3ccccc3nc21`, the “hERG current change (%, negative = inhibition) at 1uM” value came out at 3.53%.
For `COc1cccc(CN2CC(C(=O)NCCN3CCOCC3)CCC2=O)c1` (stereo not shown), the “hERG current change (%, negative = inhibition) at 1uM” value worked out at 0.381%.
For the compound `Cc1cccc(CSCCNC(=S)Nc2ccccc2)c1`, the “hERG current change (%, negative = inhibition) at 1uM” value was 17.6%.
Under `COc1ccc(S(=O)(=O)Cc2ccc(C(=O)NCc3ccccn3)o2)cc1` stands 9.71%.
The result for `CCn1c(CNC(=O)c2ccccc2)nnc1SCC(=O)N1CCN(c2ccccc2)CC1` reads 8.85%.

Values taken from PMC4336329 (PLoS ONE, 2015).
